Results as given in a compilation of properties of binary mixtures (doi:10.1021/je990132b).
Some of these densities may be calculated back from excess volumes.

Assay: xn = mol fraction of the nth substance listed
Conditions: 298.15 K, 100 kPa

COCCOC + CC#N
Conditions | mass density [kg/m3]
x1 = 0.0339 | 783.5
x1 = 0.0637 | 788.9
x1 = 0.0854 | 792.7
x1 = 0.107 | 796.3
x1 = 0.1367 | 800.9
x1 = 0.161 | 804.5
x1 = 0.1843 | 807.8
x1 = 0.2035 | 810.4
x1 = 0.2366 | 814.6
x1 = 0.2722 | 818.8
x1 = 0.2923 | 821
x1 = 0.308 | 822.7
x1 = 0.3167 | 823.6
x1 = 0.3528 | 827.2
x1 = 0.3672 | 828.6
x1 = 0.3901 | 830.7
x1 = 0.4107 | 832.5
x1 = 0.4905 | 838.8
x1 = 0.5391 | 842.2
x1 = 0.5792 | 844.7
x1 = 0.6911 | 851
x1 = 0.7816 | 855.1
x1 = 0.8356 | 857.3
x1 = 0.8598 | 858.2
x1 = 0.8879 | 859.1

COCCOCCOC + CC#N
Conditions | mass density [kg/m3]
x1 = 0.0037 | 778.6
x1 = 0.0121 | 782.6
x1 = 0.023 | 787.6
x1 = 0.0444 | 796.8
x1 = 0.062 | 803.9
x1 = 0.0827 | 811.7
x1 = 0.1207 | 824.8
x1 = 0.1437 | 832.1
x1 = 0.1763 | 841.5
x1 = 0.2139 | 851.4
x1 = 0.2405 | 857.8
x1 = 0.2671 | 863.8
x1 = 0.3139 | 873.3
x1 = 0.38 | 885.1
x1 = 0.4482 | 895.5
x1 = 0.5263 | 905.5
x1 = 0.61 | 914.4
x1 = 0.6524 | 918.3
x1 = 0.7402 | 925.3
x1 = 0.7995 | 929.3
x1 = 0.8671 | 933.2
x1 = 0.9455 | 936.8

COCCOCCOCCOC + CC#N
Conditions | mass density [kg/m3]
x1 = 0.0024 | 778.6
x1 = 0.0088 | 783.3
x1 = 0.021 | 791.8
x1 = 0.0301 | 797.9
x1 = 0.0575 | 814.6
x1 = 0.1477 | 857.9
x1 = 0.1809 | 870.5
x1 = 0.2182 | 882.9
x1 = 0.2528 | 893.2
x1 = 0.2958 | 904.5
x1 = 0.3483 | 916.4
x1 = 0.3885 | 924.4
x1 = 0.4353 | 932.7
x1 = 0.4731 | 938.7
x1 = 0.5015 | 942.8
x1 = 0.5698 | 951.5
x1 = 0.6518 | 960.2
x1 = 0.6661 | 961.6
x1 = 0.8757 | 976.2
x1 = 0.9459 | 979.3

COCCOCCOCCOCCOC + CC#N
Conditions | mass density [kg/m3]
x1 = 0.0021 | 779
x1 = 0.0107 | 787.3
x1 = 0.0144 | 790.8
x1 = 0.0189 | 794.9
x1 = 0.024 | 799.4
x1 = 0.059 | 827
x1 = 0.0874 | 845.9
x1 = 0.1615 | 884.3
x1 = 0.1908 | 896.4
x1 = 0.2188 | 906.6
x1 = 0.2677 | 922.2
x1 = 0.2904 | 928.5
x1 = 0.3252 | 937.3
x1 = 0.3733 | 948
x1 = 0.451 | 962.2
x1 = 0.5325 | 974
x1 = 0.6128 | 983.2
x1 = 0.6695 | 988.7
x1 = 0.7087 | 991.9
x1 = 0.7633 | 996.2
x1 = 0.8021 | 998.5
x1 = 0.9588 | 1005.4
